Series [1] concerns the target T1, CD73 (Homo sapiens, UniProt P21589).
T1 construct: endogenous in cells; host or cells: CD8+ T cells (modelled)
T1 sequence (P21589 27-549): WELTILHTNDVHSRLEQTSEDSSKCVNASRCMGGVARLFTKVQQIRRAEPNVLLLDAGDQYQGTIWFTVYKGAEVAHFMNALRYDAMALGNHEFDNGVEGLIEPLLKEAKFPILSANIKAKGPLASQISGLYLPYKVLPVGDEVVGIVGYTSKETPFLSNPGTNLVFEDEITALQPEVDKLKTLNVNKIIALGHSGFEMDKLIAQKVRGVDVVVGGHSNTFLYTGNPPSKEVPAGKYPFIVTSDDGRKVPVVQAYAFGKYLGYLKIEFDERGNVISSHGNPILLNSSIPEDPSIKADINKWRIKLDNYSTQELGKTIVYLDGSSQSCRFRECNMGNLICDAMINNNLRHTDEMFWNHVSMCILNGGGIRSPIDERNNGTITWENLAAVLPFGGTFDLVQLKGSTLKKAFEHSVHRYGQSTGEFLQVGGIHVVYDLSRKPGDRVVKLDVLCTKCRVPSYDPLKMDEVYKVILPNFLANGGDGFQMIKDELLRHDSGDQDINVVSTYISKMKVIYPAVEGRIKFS
Nature of the series: CD73 target occupancy on human whole blood samples (ex vivo). It is filed as cell-based. The source says: Isotype control treated samples mimicked blood that had zero target occupancy.

Series [2] deals with T2, rat CD73/His (Rattus norvegicus, UniProt P21588).
T2 sequence (P21588 29-551): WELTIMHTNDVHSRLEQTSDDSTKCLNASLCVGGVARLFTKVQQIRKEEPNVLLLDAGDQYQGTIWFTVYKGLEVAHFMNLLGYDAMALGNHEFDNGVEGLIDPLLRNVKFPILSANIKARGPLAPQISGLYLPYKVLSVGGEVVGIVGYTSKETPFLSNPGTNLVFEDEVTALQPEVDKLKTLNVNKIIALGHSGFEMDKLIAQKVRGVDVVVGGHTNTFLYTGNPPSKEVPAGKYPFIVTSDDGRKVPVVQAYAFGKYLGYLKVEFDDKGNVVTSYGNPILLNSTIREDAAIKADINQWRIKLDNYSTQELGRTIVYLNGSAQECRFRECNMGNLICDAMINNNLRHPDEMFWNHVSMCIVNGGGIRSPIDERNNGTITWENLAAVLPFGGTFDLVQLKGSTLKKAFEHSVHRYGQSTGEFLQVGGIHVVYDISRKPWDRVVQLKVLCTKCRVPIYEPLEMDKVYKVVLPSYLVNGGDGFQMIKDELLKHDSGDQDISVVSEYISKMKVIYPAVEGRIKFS
Briefly: Biacore SPR, anti-His antibody capture, rat CD73/His. The class given is binding. As to the method:
(§1) The anti-His Ab was directly immobilized onto a CM5 chip surface by amine coupling. The His-tagged human CD73/His, cynomolgus monkey CD73/His, mouse CD73/His or rat CD73/His was flowed over and captured at a desired resonance unit (RU) for an Rmax of 20. Antibody analyte concentrations in serial dilutions of IgG or Fab were flowed over at 60 μL/min. The sensorgrams were analyzed using the manufacturer's software for a 1:1 binding model.
A general note: Surface plasmon resonance follows binding to a sensor surface in real time, without labels.

The nature of series [3]: Phase I/Ib study: headache events and Cmax after first dose (logistic regression). It is filed as in vivo, human.
Series [4] has as its target T3, mouse CD73/His (Mus musculus, UniProt Q61503).
T3 sequence (Q61503 29-551): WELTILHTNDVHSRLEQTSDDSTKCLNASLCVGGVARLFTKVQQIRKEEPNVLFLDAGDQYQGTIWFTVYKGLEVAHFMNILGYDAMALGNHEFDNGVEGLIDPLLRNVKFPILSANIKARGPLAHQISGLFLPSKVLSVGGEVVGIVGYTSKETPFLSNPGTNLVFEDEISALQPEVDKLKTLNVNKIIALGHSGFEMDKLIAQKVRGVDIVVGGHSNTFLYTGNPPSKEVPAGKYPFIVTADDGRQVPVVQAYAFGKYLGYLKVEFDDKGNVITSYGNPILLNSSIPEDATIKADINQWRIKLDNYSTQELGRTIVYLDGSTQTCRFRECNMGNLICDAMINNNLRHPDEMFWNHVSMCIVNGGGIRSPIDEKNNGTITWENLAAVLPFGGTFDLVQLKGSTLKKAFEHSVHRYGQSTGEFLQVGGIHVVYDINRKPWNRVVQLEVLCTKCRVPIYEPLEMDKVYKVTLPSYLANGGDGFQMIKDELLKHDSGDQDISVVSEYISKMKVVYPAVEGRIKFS
Briefly: Biacore SPR, anti-His antibody capture, mouse CD73/His. The class given is binding. How it is done: as §1

In series [5] the target is T4, recombinant mouse CD73 (Mus musculus, UniProt Q61503).
T4 construct: His; purchased R&D Systems 4488-EN
T4 sequence (Q61503 29-551): T3 sequence (Q61503 29-551)
Briefly: Biacore affinity of Fabs 350 and 373 (anti-human Fab capture), mouse CD73. It is filed as binding. The following applies: antigen mCD73, Biacore. From the text: (§2) Fabs of mAbs 350 and 373 were generated by engineering a stop between the two proline residues above the core hinge region of the heavy chain of 350 and 373. Both were expressed in Expi293F (ThermoFisher) cells and purified using CaptureSelect IgG CH1 Affinity resin (ThermoFisher).
(§3) Biacore was used to measure cross-species affinity for the Fab materials of mAbs 350 and 373. Proteins used were as follows: recombinant human CD73 (R&D Systems 5795-EN); recombinant cynomolgus monkey CD73 (Sino Biological 90912-C08H); recombinant mouse CD73 (R&D Systems 4488-EN); and recombinant rat CD73 (Sino Biological 80375-R08H). Anti-human Fab (GE Healthcare Life Sciences) was immobilized on all 4 flow cells (Fc) on a CM5 chip (GE). Fabs 350 and 373 were captured on Fc2 and Fc4, at ˜20 RU. 0.01 nM to 90 nM CD73 (3-fold dilution series) was flown over all 4 Fcs. All samples were diluted in running buffer HBS-EP+(pH 7.4, 0.01 M HEPES, 150 mM NaCl, 3 mM EDTA and 0.05% (v/v) P20).

The target of series [6] is T5, recombinant rat CD73 (Rattus norvegicus, UniProt P21588).
T5 construct: purchased Sino Biological 80375-R08H
T5 sequence (P21588 29-551): T2 sequence (P21588 29-551)
Briefly: Biacore affinity of Fabs 350 and 373 (anti-human Fab capture), rat CD73. It is filed as binding. Particulars: antigen rCD73, Biacore.
Text: as §2, §3

[7] abbreviates: Cmax after first dose below […].

B1: 373.A: anti-CD73 antibody 373, IgG4 with S228P mutation; heavy chain SEQ ID NO: 46 wherein X is K (antibody)
heavy: EVQLLESGGGLVQPGGSLRLSCAASGFTFHRYAMSWVRQAPGKGLEWVSAISGSGMNTYYADSVKGRFTISRDNSKNTLYLQMNSLRAEDTAVYYCARGGLYGSGSYLSDFDLWGRGTLVTVSSASTKGPSVFPLAPCSRSTSESTAALGCLVKDYFPEPVTVSWNSGALTSGVHTFPAVLQSSGLYSLSSVVTVPSSSLGTKTYTCNVDHKPSNTKVDKRV[letters of human IgG4 Fc with S228P (EU numbers) left out]
light: EIVLTQSPATLSVSPGERATLSCRASQSVGSNLAWYQQKPGQAPRLLIYGASTRATGIPARFSGSGSGTEFTLTISSLQSEDFAVYYCQQHNAFPYTFGGGTKVEIKRTVAAPSVFIFPPSDEQLKSGTASVVCLLNNFYPREAKVQWKVDNALQSGNSQESVTEQDSKDSTYSLSSTLTLSKADYEKHKVYACEVTHQGLSSPVTKSFNRGEC
As for B1, the “Geometric mean fluorescence intensity of biotinylated 373.A after pretreatment” value in series [1] (unlabeled 373.A 0.17 ng/mL and 0.51 ng/mL, similar to isotype control, donor 1) was about 1600 gMFI; in series [1] (unlabeled 373.A 0.17 ng/mL and 0.51 ng/mL, similar to isotype control, donor 2), about 2200 gMFI; in series [1] (unlabeled 373.A 10 μg/mL to ~0.1 μg/mL, both donors) it was about 550 gMFI. Further, the CD73 target occupancy result in series [1] (unlabeled 373.A 10 μg/mL to ~0.1 μg/mL) was “full CD73 target occupancy”. In addition, the “Binding to rat CD73/His protein” value in series [2] is recorded as “undetectable”. For the same molecule, the “Probability to experience Grade 2 or higher headache events” value in series [3] (setting [7]) was “below 25%”. The “Probability to experience Grade 3 or higher headache events” value in series [3] (setting [7]) was “less than 10%”. Moreover, the “Time to resolution of headaches” value in series [3] (first dose effect) was at most 48 h. Besides, the “Patients with any grade headache who had the event after the first dose” value in series [3] (patients) is recorded as over 90%. Besides, in series [4], the “Binding to mouse CD73/His protein” value is listed as “undetectable”.

B2: 373.A Fab: Fab fragments of 373.A (antibody)
VH: EVQLLESGGGLVQPGGSLRLSCAASGFTFHRYAMSWVRQAPGKGLEWVSAISGSGMNTYYADSVKGRFTISRDNSKNTLYLQMNSLRAEDTAVYYCARGGLYGSGSYLSDFDLWGRGTLVTVSS
light: B1 light
As to B2, in series [2], the “Binding to rat CD73/His protein” value is given as “undetectable”. Besides, the “Binding to mouse CD73/His protein” value in series [4] is on record as “undetectable”.

B3: 373 Fab: Fab of mAb 373, stop engineered above the core hinge of the heavy chain (antibody)
VH: B2 VH
light: B1 light
As to B3, the “Kd (M)” value in series [5] and in series [6] was “No Binding” in each case.

The values are drawn from patent US20240141060A1, “DOSAGE REGIMES FOR ANTI-CD73 AND ANTI-ENTPD2 ANTIBODIES AND USES THEREOF” (NOVARTIS AG, priority 2021, published 2024).
